From paper PMC10809502, “Application of a new MDCKII-MDR1 cell model to measure the extent of drug distribution in vitro at equilibrium for prediction of in vivo unbound brain-to-plasma drug distribution” (Fluids and Barriers of the CNS, 2024)

Test system: MDCKII-cells transfected with the human P-gp-transporter (hMDR1)
Conditions: for Permeability (Papp) Papp,AtoB: apical-to-basolateral; for Permeability classification Papp,AtoB: from Papp,AtoB; for Human P-gp substrate classification: from efflux ratio
[1] = 0.5 μM, 60 min, 1% BSA in HBSS pH 7.4, mean ± SD N=3

Row | SMILES | Permeability (Papp) Papp,AtoB [1] | Permeability classification Papp,AtoB | Human P-gp substrate classification | Permeability (Papp) Papp,BtoA (basolateral-to-apical, 0.5 μM, 60 min, 1% BSA in HBSS pH 7.4, mean ± SD N=3) | Efflux ratio (conventional bidirectional transport, MDCKII-MDR1, no inhibitor) | ER with an inhibitor present (inhibitor present)
1 | CN(C)CCCC1(c2ccc(F)cc2)OCc2cc(C#N)ccc21 (centres unmarked) [Citalopram, citalopram] | 4.7 ± 0.4 10^–6 cm/s | Moderate (moderate > 1 Papp < 10) | Possible (possible substrates: ER > 1.5) |  |  | 
2 | COc1ccc2c(c1)c(CC(=O)O)c(C)n2C(=O)c1ccc(Cl)cc1 [Indomethacin, indomethacin] | 3.7 ± 0.5 10^–6 cm/s | Moderate (moderate > 1 Papp < 10) | Unlikely (unlikely substrates: ER < 1.5) |  |  | 
3 | CC(C)NCC(O)COc1cccc2ccccc12 (centres unmarked) [Propranolol, propranolol] | 4.5 ± 0.4 10^–6 cm/s | Moderate (moderate > 1 Papp < 10) | Unlikely (unlikely substrates: ER < 1.5) |  |  | 
4 | O=C(c1ccc(F)cc1)C1CCN(CCn2c(=S)[nH]c3ccccc3c2=O)CC1 [Altanserin] | 3.0 ± 0.6 10^–6 cm/s | Moderate (moderate > 1 Papp < 10) | Unlikely (unlikely substrates: ER < 1.5) |  |  | 
5 | NCC1(CC(=O)O)CCCCC1 [Gabapentin, gabapentin] | 2.9 ± 0.7 10^–6 cm/s | Moderate (moderate > 1 Papp < 10) | Unlikely (unlikely substrates: ER < 1.5) |  |  | 
6 | COc1ccccc1N1CCN(CCN(C(=O)C2CCCCC2)c2ccccn2)CC1 [Way-100635] | 13 ± 1 10^–6 cm/s | High (high: Papp > 10) | Unlikely (unlikely substrates: ER < 1.5) | 17 ± 3 10^–6 cm/s | 1.3 | 
7 | CN(C)CCC=C1c2ccccc2COc2ccccc21 [Doxepin, doxepin] |  | Moderate (moderate > 1 Papp < 10) | Unlikely (unlikely substrates: ER < 1.5) |  |  | 
8 | O=C1CC2(CCCC2)CC(=O)N1CCCCN1CCN(c2ncccn2)CC1 [Buspirone, buspirone] | 21 ± 2 10^–6 cm/s | High (high: Papp > 10) |  |  |  | 
9 | Clc1ccc2c(c1)N=C(N1CCNCC1)c1ccccc1N2 [N-desmethylclozapine] | 2.1 ± 0.5 10^–6 cm/s | Moderate (moderate > 1 Papp < 10) | Likely (likely P-gp substrates: ER > 2) |  |  | 0.8
10 | CN/C(=N/CCSCc1nc[nH]c1C)NC#N [Cimetidine, cimetidine] | < LLOQ |  |  |  |  | 
